Experimental data published in paper PMC4336329 (PLoS ONE, 2015).
The whole screen tested about 310,000 compounds, of which about 2,200 (0.71%) showed an effect of 50% or more. The effect is printed as a negative number. The list shows a part of the results.

Target: human ether-à-go-go-related gene (hERG) potassium channel (human, UniProt Q12809)
Assay: primary screen, population patch clamp on CHO cells stably expressing hERG

Chain of human ether-à-go-go-related gene (hERG) potassium channel (Q12809 whole entry, looked up): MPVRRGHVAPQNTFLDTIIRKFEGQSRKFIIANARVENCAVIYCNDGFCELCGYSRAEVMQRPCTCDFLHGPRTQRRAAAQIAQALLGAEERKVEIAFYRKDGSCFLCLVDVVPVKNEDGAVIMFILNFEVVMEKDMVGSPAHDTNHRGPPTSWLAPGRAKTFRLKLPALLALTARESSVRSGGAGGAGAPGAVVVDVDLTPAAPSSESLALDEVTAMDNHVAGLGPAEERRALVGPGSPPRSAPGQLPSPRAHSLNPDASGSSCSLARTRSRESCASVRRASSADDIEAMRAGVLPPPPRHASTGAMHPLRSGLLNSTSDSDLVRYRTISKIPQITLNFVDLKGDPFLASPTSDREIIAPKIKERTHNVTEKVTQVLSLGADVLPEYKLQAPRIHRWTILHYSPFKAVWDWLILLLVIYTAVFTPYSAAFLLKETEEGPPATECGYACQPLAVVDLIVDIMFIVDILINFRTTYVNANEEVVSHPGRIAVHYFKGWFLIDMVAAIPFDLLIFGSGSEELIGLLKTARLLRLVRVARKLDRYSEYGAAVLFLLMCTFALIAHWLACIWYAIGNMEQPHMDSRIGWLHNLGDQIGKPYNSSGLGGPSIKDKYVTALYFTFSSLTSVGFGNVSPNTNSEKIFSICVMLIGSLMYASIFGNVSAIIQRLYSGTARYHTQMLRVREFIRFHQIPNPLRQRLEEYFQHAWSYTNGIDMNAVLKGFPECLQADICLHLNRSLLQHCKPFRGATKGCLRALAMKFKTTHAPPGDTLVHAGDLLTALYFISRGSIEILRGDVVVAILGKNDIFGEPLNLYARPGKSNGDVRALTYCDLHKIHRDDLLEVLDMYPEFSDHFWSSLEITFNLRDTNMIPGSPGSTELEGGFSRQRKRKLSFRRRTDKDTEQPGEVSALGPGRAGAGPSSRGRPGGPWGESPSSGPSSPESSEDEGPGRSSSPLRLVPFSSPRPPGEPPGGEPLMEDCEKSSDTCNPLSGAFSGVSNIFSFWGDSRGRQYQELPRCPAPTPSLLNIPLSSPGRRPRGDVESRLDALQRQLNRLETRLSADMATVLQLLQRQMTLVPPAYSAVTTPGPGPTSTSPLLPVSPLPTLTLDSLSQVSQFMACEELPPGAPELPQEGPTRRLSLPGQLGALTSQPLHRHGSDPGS

| SMILES | hERG current change (%, negative = inhibition) at 1uM [%] |
| --- | --- |
| CCc1cccc(CC)c1NC(=O)COC(=O)c1ccc2c(c1)S(=O)(=O)c1ccccc1C2=O | 12.5 |
| CCOC(=O)c1cnc2cc(-c3ccc(Cl)cc3)nn2c1N | 0.811 |
| Cc1ccc(-c2cn3c(=O)cc(C)[nH]c3n2)cc1 | 11.9 |
| COc1ccc(C(O)(C(C)C)C(CN2CCOCC2)c2ccc(Cl)cc2)cc1.Cl (stereo not shown) | 9.24 |
| Cc1ccc(NC(=O)CN(C)c2ccc(S(=O)(=O)N3CCCC3)cn2)cc1 | 2.33 |
| CC(=O)Nc1cccc(OCCCNC(=O)c2ccc(F)cc2)c1 | 8.14 |
| Cc1ccc(-n2cnc3ncnc(-c4ccccc4)c32)cc1 | 4.68 |
| COc1cc(/C=N/N(C)S(=O)(=O)c2ccc(C)cc2)cc([N+](=O)[O-])c1O | 7.51 |
| O=C(NC1CC1)C1=C[C@H](c2coc3ccccc3c2=O)C[C@H](OCc2ccc(CO)cc2)O1 | 4.78 |
| Cc1nc2ccc(-c3ccccc3)cc2o1 | -16.6 |
| Cc1nn(CC(=O)NCCCN2CCC(N3CCCCC3)CC2)c(=O)c2cc(-c3ccccc3)nn12 | 8.61 |
| COc1ccc(CNC(=O)C(=O)NCCC2CCCCN2S(=O)(=O)c2ccccc2)cc1 (stereo not shown) | 5.18 |
| COc1ccc(NC(=O)CN2CCN(c3nc(-c4ccc(F)cc4)cs3)CC2)c(OC)c1 | 19.2 |
| COc1cc(CCCN2CCNC[C@@H]2Cc2ccc(O)cc2)cc(OC)c1OC | 9.46 |
| Cc1ccc(S(=O)(=O)Cc2ccc(C(=O)NCCCN3CCN(C)CC3)o2)cc1 | 16.7 |
| CCn1ccnc1CN1CCCC(C(=O)c2cccc(C(F)(F)F)c2)C1 (stereo not shown) | 1.55 |
| Cc1cc(=O)oc2c(CN3CCCC3)c(O)c(Cl)cc12 | 7.07 |
| COc1ccc(OCC(=O)NCC(c2ccc(OC)cc2)N2CCCCC2)cc1 (stereo not shown) | -1.58 |
| Cc1ccc(S(=O)(=O)NCc2ccco2)cc1C(N)=O | 8.9 |
| Cc1cc(N2C(=O)C(=O)/C(=C(/O)c3ccc(F)cc3)C2c2cccc(Br)c2)no1 (stereo not shown) | 8.94 |
| COc1ccc(S(=O)(=O)N2CCCCCC2)cc1C(=O)N1CCCCC1 | 3.64 |
| O=C(Nc1cccnc1)c1ccc2snnc2c1 | 5.05 |

| SMILES | hERG current change (%, negative = inhibition) at 1uM [%] |
| --- | --- |
| Cc1nc(OCc2c(C)noc2C)c2ccccc2n1 | 13.1 |
| CCC(=O)Nc1cc(OC)cc(OC)c1 | 7.75 |
| COCCNC(=O)CNC(=S)N(Cc1ccccc1)Cc1cccnc1 | 3.49 |
| O=C(Nc1cccc(-c2nc3ncccc3o2)c1)c1sc2cc(Cl)ccc2c1Cl | 7.56 |
| Cc1ccc(-n2c(O)c(/C=N/N3CCCCCC3)c(=O)[nH]c2=O)cc1C | 11.7 |
| O=C1C=C(NCc2ccco2)C2(CCCCC2)O1 | 12 |
| COc1ccc(/C=C(\NC(=O)c2cccs2)C(=O)NC(C)(C)C)cc1OC | 11.2 |
| CC(=O)Nc1ccc(SC[C@H](CC(C)C)N2CCN(CC(C)C)CCC2=O)cc1 | -10 |
| COc1ccc(C(=O)N/C(=C\c2ccc3c(c2)OCO3)C(=O)Nc2ccc(C(=O)O)cc2)cc1 | 10.6 |
| O=C(Nc1nnc(SCc2ccccc2Cl)s1)c1cccc([N+](=O)[O-])c1 | 3.89 |
| Cc1ccc(-n2ncc3c(SCC(=O)Nc4cc(C)on4)ncnc32)c(C)c1 | 7.97 |
| O=C(/C=C/c1ccccc1Cl)NNC(=O)c1ccncc1 | 5.81 |
| COc1ccc(C(C)=O)cc1CC(C(=O)c1ccc(Br)cc1)N(C)C (stereo not shown) | 9.63 |
| Cc1cc(NS(=O)(=O)c2ccc(NC(=O)c3ccc(Cl)cc3[N+](=O)[O-])cc2)no1 | 17 |
| COc1ccccc1NC(=O)c1cc(S(=O)(=O)NCc2ccccc2)ccc1F | 12.1 |
| CCC(/C=N/NC(=O)C(=O)N/N=C/C(CC)CC)CC | 11.9 |
| N#C/C=C/C#N | 7.86 |
| Cc1ccc2cc(CCNC(=O)C(C)C)c(=O)[nH]c2c1C | 13.2 |
| CC1SC(C)C(=O)N(CC(=O)Nc2ccc3c(c2)OCO3)C1=O (stereo not shown) | 5.06 |
| O=C(Cn1c(=O)oc2ccccc21)Nc1ccc(F)c(F)c1 | 10.6 |
| Cc1occc1C(=O)N/N=C/c1ccc(OCc2ccccc2)cc1 | 10.1 |
| CC(NC(=O)c1ccc(N(C)C)cc1)c1ccc(F)cc1 (stereo not shown) | 6.16 |

| SMILES | hERG current change (%, negative = inhibition) at 1uM [%] |
| --- | --- |
| Cc1cc(C)n(C(=O)CCNC(=O)c2ccccc2Br)n1 | 12.8 |
| CCN(CC)CCNc1nc2c(c(=O)n(C)c(=O)n2C)n1C/C=C(/C)Cl | -44.6 |
| Nc1ccccc1S(=O)(=O)NC1=NCCCCC1 | 8.35 |
| COc1ccc(CCn2nnnc2C(CC(C)C)N2CCC(C(N)=O)CC2)cc1OC (stereo not shown) | 3.82 |
| Cl.c1ccc(-c2nc(NCc3cccnc3)c3oc4ccccc4c3n2)cc1 | 11.1 |
| NC(=O)C1=C[C@H](c2ccc(Br)cc2)C[C@H](OCc2ccc(CO)cc2)O1 | 9.19 |
| COc1ccc(C(c2nnnn2Cc2cccs2)N2CCN(c3ccccc3F)CC2)cc1 (stereo not shown) | 8.8 |
| CCC(C)C(=O)Nc1ncc2c(n1)CC(c1cccs1)CC2=O (stereo not shown) | -3.87 |
| O=C(O)c1cnn(-c2ccccc2)c1-c1ccccc1 | 16.9 |
| C/C(CC(=O)Nc1cc(Cl)ccc1Cl)=N\NC(=O)COc1cccc(C)c1 | 16.3 |
| CCC1CCCCN1CC(=O)Nc1cc(C)nn1-c1nc(C)cc(C)n1 (stereo not shown) | -10.3 |
| CC1CCC(NC(=O)CN2C(=O)NC3(CCCCC3C)C2=O)CC1 (stereo not shown) | 12.2 |
| CCOC(=O)c1[nH]cnc1C(=O)Nc1ccc([N+](=O)[O-])cc1 | 5.19 |
| COc1ccc(C(=O)NCc2ccc(Cl)c(Cl)c2)cc1OC | 0.388 |
| CC(C)c1nnc(SCC(=O)N2CCc3ccccc32)n1C | -4.56 |
| Cc1ccc(S(=O)(=O)N2CCOCC2)cc1NC(=O)COC(=O)CSc1ccc(Br)cc1C | 2.39 |
| Cc1cc(C(F)(F)F)cc(NNC(=O)NC(=O)c2ccccc2Cl)n1 | 12.3 |
| CCc1ccc(NC(=O)NC(C)c2ccc3c(c2)OCO3)cc1 (stereo not shown) | 4.18 |
| COCC(=O)Nc1ccccc1C(=O)Nc1ccc(OC)cc1 | -6.86 |
| CS(=O)(=O)n1nc(OC(=O)c2cc(Br)ccc2Cl)cc1N | 12.2 |
| Cc1c(N=C2N=C(NC(=O)Nc3ccc(Cl)cc3)c3ccccc32)c(=O)n(-c2ccccc2)n1C | 14.3 |
| COc1ccc(/C=C/C(=O)NCCN=C2NS(=O)(=O)c3ccccc32)cc1 | 6.82 |

| SMILES | hERG current change (%, negative = inhibition) at 1uM [%] |
| --- | --- |
| Cc1cc(=O)[nH]c(/N=C(\N)Nc2ccc3c(c2)OCCO3)n1 | 12 |
| CC(=O)NC12CC3CC(C1)CC(C(=O)OCC(=O)NC(=O)c1cccn1C)(C3)C2 | 5.52 |
| CCOc1ccc(OCCC(=O)OCC(=O)NC2CCCC2)cc1 | 27.2 |
| CC(C)(C)[C@H]1C=C(C(=O)N2CCOCC2)O[C@@H](OCCCCO)C1 | 8.26 |
| Cc1ccc(CNC(=O)c2ccc(Br)o2)cc1 | 5.75 |
| O=C(NCCCNC(=O)c1c(Cl)cccc1Cl)c1c(Cl)cccc1Cl | 20.1 |
| Cc1cc(C(=O)N/N=C/c2cccnc2)n[nH]1 | 12.4 |
| CCOC(=O)N1CCC(n2c(SCC(=O)NCc3ccco3)nc3ccsc3c2=O)CC1 | -15.4 |
| Cc1ccc2c(NC(=O)C3CC3)cccc2n1 | 6.88 |
| COc1ccc(NC(=S)N2CCN(S(=O)(=O)c3ccc(F)cc3)CC2)cc1OC | 10.8 |
| Cc1nnsc1C(=O)NNc1ccc(Cl)cc1 | 1.36 |
| CC(=O)c1nn(-c2ccccc2)cc1C(=O)c1ccc(C)cc1 | 14.8 |
| COc1cc(NC(=O)c2ccnn2C)c(OC)cc1Cl | 12.3 |
| Cn1c(-[n+]2c(-c3ccccc3)cc(-c3ccccc3)cc2-c2ccccc2)nc2cc([N+](=O)[O-])ccc21.[I-] | 6.84 |
| COc1ccc(NC(=O)c2cc3ccccc3o2)cn1 | 16.1 |
| NC(=O)c1ccccc1OCC(=O)N1CCC(Cc2ccccc2)CC1 | -1.79 |
| COc1ccc(-c2nn(CCC#N)cc2C(=O)Nc2ccccn2)cc1OC | 16.3 |
| COc1ccccc1C(=O)Nc1nnc(S(=O)(=O)N2CCN(c3ccc(F)cc3)CC2)s1 | 16 |
| CC1=CC2=NC(=O)/C(=C\c3cc(C)n(-c4ccccc4)c3C)C(=N)N2O1 | 11.9 |
| CC1CCN(CCCNC(=O)CCc2nnc3n(CCc4ccccc4)c(=O)c4ccccc4n23)CC1 | -52.4 |
| O=C(NCCc1ccccc1)C1CCN(C(=O)c2ccc(F)cc2)CC1 | 13.3 |
| CC(=O)Nc1ccc(S(=O)(=O)N2CCOCC2)cc1 | -0.964 |
